Laboratory results: article PMC8615847, “The σ1 Receptor and the HINT1 Protein Control α2δ1 Binding to Glutamate NMDA Receptors: Implications in Neuropathic Pain” (Biomolecules, 2021)

Columns and labels:
[1] = target: T1, recombinant histidine triad nucleotide-binding protein 1 (mouse, UniProt P70349 1-126); experiment: pull-down; HINT1-NR1 C1 complexes exposed to (α2)δ1 in the absence or presence of calcium (Supplementary Figure S8D); conditions: both partners purified
T1 construct: also called HINT1; HINT1 protein; source: E. coli BL21 (KRX), purified (GSTrap FF or HaloLink resin, ion exchange)
T1 sequence (looked up): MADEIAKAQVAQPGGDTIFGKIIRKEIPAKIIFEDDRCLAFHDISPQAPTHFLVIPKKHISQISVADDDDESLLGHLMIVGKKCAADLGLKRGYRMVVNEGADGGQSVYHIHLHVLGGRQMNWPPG

[2] = target: T2, recombinant sigma 1 receptor (mouse, UniProt O55242 1-223); experiment: pull-down; sequential: σ1R (100 nM) bound to agarose-NR1 C1, unbound removed, then (α2)δ1 (100 nM) for 30 min at RT; or NR1 C1 (100 nM) added to agarose-(α2)δ1-σ1R; 50 mM Tris-HCl pH 7.4, 0.2% CHAPS, 2.5 mM CaCl2; Western blot; conditions: both partners purified
T2 construct: sigma 1 receptor, mouse, coding region of AF004927; also called σ1R; σ1Rs; source: E. coli BL21 (KRX), purified (GSTrap FF or HaloLink resin, ion exchange)

B1: cytosolic C0-C1-C2 region of the glutamate NMDAR NR1 subunit (domain or fragment)
chain: not shown
notes: glutamate NMDA receptor NR1 subunit, mouse, cytosolic C0-C1-C2 region, […] of NM_008169; Used attached to agarose as bait and free in solution (100 nM) as prey; also called NR1 C1; NR1 C0-C1-C2; source: E. coli BL21 (KRX), purified (GSTrap FF or HaloLink resin, ion exchange)
[1]
  binding result: binds
[2]
  binding result: binds
